We go through 56 variants from the RNAGym collection of RNA variant scans (doi:10.7554/elife.90254).

The labels stand for the following.
B1: LINE1-mini (parent)
chain: GGCAGAGCUCAACACAGCGUGGCAAAGUGGCUGUGGCUAGACUGCC

The source gives no read counts; variants with many changes may rest on few reads.

Variants of B1 are the subject of this data set. The data set can be described thus: self-cleavage, relative activity (ratio to wild type); higher = more cleavage; in vitro, sequencing; the parent is a self-cleaving ribozyme.
In the case of UGCAGAGCUCAAGACUGCGUGGCUAAGUGGCUGUGGCUAGACUGCC [G1U C13G A16U A24U], the self-cleavage came out at 0.04.
For UGCAGAGCUUAACACACCGUGGUAAAGUGGUUGUGGCUAGACUGUC [G1U C10U G17C C23U C31U C45U], the self-cleavage amounted to 0.02.
Turning to UGCAGAGUUCAAUACAGCGUGGCAAAGUGGCUGUGGCCAGACUGCC [G1U C8U C13U U38C], the self-cleavage stood at 0.02.
With UGCAGAGCUAAACACAGCGUGGCAAAGUGGCUGUGGCUAGACUGCG [G1U C10A C46G] the figure was 0.07; with UGCAGAGCUAAACACAGCGUGGCCAAGUGGCUGUGGCGAGACUGCC [G1U C10A A24C U38G], 0.03; with UGCAGAGCUAAACAAAGCGUGGCAAAGUGACUGUGGCUAGACUGCC [G1U C10A C15A G30A], 0.03.
With UGCAGAGUUCAACACAGCGUGGGAAAGUGGCUGUGGCAAGACUGAC [G1U C8U C23G U38A C45A] the figure was 0.02; with UGCAGAGCUCAACACAGAGUGGCGAACUGGCUGUGGCUAGACUGCC [G1U C18A A24G G27C], 0.28; with UGCAGAGCUCAACAUAGCGUAGCAAAGUGGCUGUGGCUAGACUGCG [G1U C15U G21A C46G], 0.8.
UGCAGAGCUUUACACAGCGUGGCAAAGUGGCUUUGGCUAGACUGCC [G1U C10U A11U G33U]: the self-cleavage turned out to be 0.01.
With UGCAGAGCUGAACACAGCGUGGUAAAGUGGCUGUGGCUAGACAGCC [G1U C10G C23U U43A] the figure was 0.02; with UGCAGAGCUCAACACAGAGUGGCAAAUUGGAUGUGGCUAGACUGCC [G1U C18A G27U C31A], 0.11; with UGCAGAGCUCAAAACAGCGUGGCAAACUGGCUGUGGCUAGACUGCC [G1U C13A G27C], 0.
On to UGCAGAGCUGAACACUGCGUGGCAAAGUGGCUGUGGCUAGACUGCC [G1U C10G A16U], for which the self-cleavage worked out at 0.
On to UGCAGAGCUCAACAGAGCGUAGCAAAGUGUCUGUGGCUAGACUGCC [G1U C15G G21A G30U], for which the self-cleavage turned out to be 0.01.
As for UGCAGAGCUCAAAACAACGUGGCAAAGUGGCUGUGGCUAGACUGCC [G1U C13A G17A], the self-cleavage came out at 0.09.
For the variant UGCAGAGUUCAACAUAGCGUGGCAAGGUGGCUGUGGCUAGACUGCC [G1U C8U C15U A26G], the self-cleavage was 0.1.
With UGCAGAGCUGAGCACAGCGUGGGAAAGUGGCUGUGGCUCGACCGCC [G1U C10G A12G C23G A39C U43C] the figure was 0.
As to UGCAGAGCUCAACACAGUUUGGGAAAGUGGCUGUGGCUAGACUGCC [G1U C18U G19U C23G], the self-cleavage was determined as 0.8.
For UGCAGAGCUCAACAUAGCGUGGCAAAGUGGCUGUGGCUAGACCGCG [G1U C15U U43C C46G], the self-cleavage was 0.01.
With UGCAGAGCUUACCACAGCGUGGCAAAGUGGCUGUGGCGAGACUGCC [G1U C10U A12C U38G] the figure was 0.01; with UGCAGAGCUCAACACAGAGUGGCAAGGUGGCUGUGGCUAGGCUGCC [G1U C18A A26G A41G], 0.02; with UGCAGAGCUUAACACAGCGUGGCAAAGUGGCUGUGGCUAUACUGCC [G1U C10U G40U], 0.01.
As for UGCAGAGCUGAACAGAUCGUGUGAAAGUGGUUGUGGCUAGACUGCC [G1U C10G C15G G17U G22U C23G C31U], the self-cleavage was found to be 0.01.
For the variant UGCAGAGCUCAAUACAGAGUGGCAAAGUGGCUGUGGCUACACUGCC [G1U C13U C18A G40C], the self-cleavage worked out at 0.01.
UGCAGAGCUCAACACAGGGUGGCAAAGUGGCUGUGUCUAGACUGCC [G1U C18G G36U]: the self-cleavage worked out at 0.04.
Take UGCAGAGCUCAACAUAGCGUGGCAAAGUGGCUGUAGCUAGACUGCC [G1U C15U G35A]: the self-cleavage amounted to 0.02.
As for UGCAGAGCUAAACACAGCGUGUCAAAGUGGCUGUGUCUAGACUACC [G1U C10A G22U G36U G44A], the self-cleavage worked out at 0.
With UGCAGAGCUCAAUACAGCGUGGAACGAUGGCUGUGGCUAGACUGCC [G1U C13U C23A A25C A26G G27A] the figure was 0.03; with UGCAGAGCUCAACACAGAGUGGCAAAGUGGCUGUUACUAGACUGCC [G1U C18A G35U G36A], 0.04.
With UGCAGAGCUCAAGACAGCGAGGCAAAGUGGCUGUGGCUAGACUGCC [G1U C13G U20A] the figure was 0.01; with UGCAGAGCUUAACACUGCGUGGCAAAGUGGCUGUGGCUAGACUGCC [G1U C10U A16U], 0.1; with UGCAGAGCUCAACAAAGCGUCGGAAAAGGGCUGUGGCUAGACUGCC [G1U C15A G21C C23G G27A U28G], 0.01.
Turning to UGCAGAGCUAAACACAGCGUGGCAGAGUGACUGUGGCUAGACUGCG [G1U C10A A25G G30A C46G], the self-cleavage worked out at 0.04.
With UGCAGAGCUAAACACAGCAUGGCACAGUGGCUGUGGGUAGACUGCC [G1U C10A G19A A25C C37G], the self-cleavage worked out at 0.
Consider UGCAGAGCUAAACACAGCGGUGCAAAGUGGCUGUGGCUAGACUGCC [G1U C10A U20G G21U], for which the self-cleavage came out at 0.01.
For the variant UGCAGAGCUCAACAUAGCGAGGCAAAGUGUUUGUGGCUACACUGCC [G1U C15U U20A G30U C31U G40C], the self-cleavage was 0.02.
In the case of UGCAGAGCUAAACACAGCUUGGCAAAGUGGCUGUGGCUAGACUGCC [G1U C10A G19U], the self-cleavage was determined as 0.02.
UGCAGAGCUCAACAGAGCGUGGCAAAGAGGCUGUGGCUAGACUGCC [G1U C15G U28A]: the self-cleavage stood at 0.01.
Turning to UGCAGAGCUCAACAUAGCGUGGCAAAACGGCUGUGGCUAGACUGCC [G1U C15U G27A U28C], the self-cleavage came to 0.04.
With UGCAGAGCUCAAUACAGCGUGGCAAAGUGGCUGGGGCUAGACUGCC [G1U C13U U34G] the figure was 0.08; with UGCAGAGCUUAACACACCGUGGCAAAGUGGCUGUGACUAAACAGCC [G1U C10U G17C G36A G40A U43A], 0.
Consider UGCAGAGCUGAACACAGCGUGGCAAAGUGACUGUGGCUAGACUUCC [G1U C10G G30A G44U], for which the self-cleavage came out at 0.02.
Regarding UGCAGAGCUCAAUACAGCGUGGCAAUGUGGCUGUGGCUAGACAGCU [G1U C13U A26U U43A C46U], the self-cleavage came to 0.14.
Consider UGCAGAGCUAAACACAGCGUGGAAAAGUGGCUGUGGCUAGACUGCC [G1U C10A C23A], for which the self-cleavage was determined as 0.02.
Regarding UGCAGAGCUAAAUACAGCGUGGCAAAGUGGCUGUGGCUCGACUGCC [G1U C10A C13U A39C], the self-cleavage is 0.01.
Turning to UGCAGAGCUCAAUACAGCGUGGUAAAGUGGGUGUGGCUUGACUCCC [G1U C13U C23U C31G A39U G44C], the self-cleavage is 0.03.
For UGCAGAGCUGAACACAGCGUUGCAAAGUGGCUGUGGCUAGACUGAC [G1U C10G G21U C45A], the self-cleavage was 0.01.
In the case of UGCAGAGUUCAACACAUCGUGGCAAAGUGGCUGUGGCUAGAGUGCC [G1U C8U G17U C42G], the self-cleavage amounted to 0.11.
Consider UGCAGAGCUCAACAAAGCGUGGCAAAGUGGCUGUGGCUUGAAUGCC [G1U C15A A39U C42A], for which the self-cleavage is 0.
Take UGCAGAGCUCAAUCCAGCGUGGCAAAGUGGCUGUGUCUAGAGUGCC [G1U C13U A14C G36U C42G]: the self-cleavage is 0.06.
With UGCAGAGCUCAACAGAGCGUGGCAAAGUGGCUGUGGCUAACCUGCC [G1U C15G G40A A41C], the self-cleavage amounted to 0.03.
With UGCAGAGCUCAACAGAGCGUGGCAAAGUGGCUGUGGCUAUACUGCC [G1U C15G G40U] the figure was 0.03; with UGCAGAGUUCAACACAGCGUGGCAAAGUGGCUGUUGCUAGACUGCC [G1U C8U G35U], 0.1; with UGCAGAGCUCAAGACAGCGUUGCAAGGUGGCUGUGGCUAGAUCGCC [G1U C13G G21U A26G C42U U43C], 0.01.
On to UGCAGAGCUAAACACAGCGUCGCAAGGUGGCUGUGGCUAGACUGCC [G1U C10A G21C A26G], for which the self-cleavage turned out to be 0.
